The results in this text go back to PMC11633528.

By UniProt entry, the sequences of proteins in these tests, tags left out. Where a name states a change or a piece, a line headed by the entry shows the natural chain unless it says otherwise.
UniProt P67809: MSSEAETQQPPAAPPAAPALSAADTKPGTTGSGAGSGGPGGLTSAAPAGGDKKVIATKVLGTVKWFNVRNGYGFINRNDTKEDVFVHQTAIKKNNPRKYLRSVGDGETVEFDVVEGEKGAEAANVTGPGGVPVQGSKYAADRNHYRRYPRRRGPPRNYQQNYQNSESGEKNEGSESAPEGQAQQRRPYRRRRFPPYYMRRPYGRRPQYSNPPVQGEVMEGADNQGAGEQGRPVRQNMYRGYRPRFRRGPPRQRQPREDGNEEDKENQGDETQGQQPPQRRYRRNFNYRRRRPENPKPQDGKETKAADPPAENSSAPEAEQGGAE
UniProt Q15717: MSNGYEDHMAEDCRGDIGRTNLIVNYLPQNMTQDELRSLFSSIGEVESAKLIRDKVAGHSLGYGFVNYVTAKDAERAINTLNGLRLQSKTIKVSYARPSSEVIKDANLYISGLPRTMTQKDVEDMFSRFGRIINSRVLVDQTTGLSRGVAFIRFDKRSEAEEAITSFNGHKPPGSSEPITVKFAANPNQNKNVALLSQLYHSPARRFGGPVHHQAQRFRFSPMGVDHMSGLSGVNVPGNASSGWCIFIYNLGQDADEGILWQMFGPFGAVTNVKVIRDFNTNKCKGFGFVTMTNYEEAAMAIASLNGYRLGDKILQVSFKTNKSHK

Results are given in words; binding and its absence hold for the method and conditions named. For some assays here: Binding seen in cells or lysates may run through a third protein. Some results given as binding are weak or reduced against the parent protein; the word gives no strength. For some assays here: Where a sequence is shown, tags or fusion partners need not be part of it.

Assay [1] deals with Y‐box binding protein 1 (YBX1), endogenous in GC cells (human (endogenous in GC cell lines)) (UniProt P67809). Nature of the assay: co-IP; YBX1 with ELAVL1 in HCP5‐132aa stable knockout or overexpressing GC cell lines.
The target in assay [2] is T1, HCP5‐132aa‐Flag (microprotein encoded by ORF15 of lncRNA HCP5), stably expressed in GC cells (human) (UniProt Q6MZN7).
T1 sequence: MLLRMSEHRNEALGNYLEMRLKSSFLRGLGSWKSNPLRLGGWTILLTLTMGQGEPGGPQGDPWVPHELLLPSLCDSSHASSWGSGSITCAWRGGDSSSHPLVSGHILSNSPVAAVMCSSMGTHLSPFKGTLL
The experiment in a line: co-IP; GC cells, IP lysis buffer, primary antibody overnight at 4 °C, Protein A/G beads, western blotting. For orientation: A western blot detects proteins with antibodies after separation by electrophoresis.

Assay [3] concerns the target Y‐box binding protein 1 (YBX1), endogenous in GC cells (human (endogenous in GC cell lines)) (UniProt P67809). Nature of the assay: proximity ligation; YBX1 with ELAVL1 in GC cells, control and HCP5‐132aa knockout.
For assay [4] the target is unchanged. Nature of the assay: co-IP; sequential immunoprecipitation in GC cell lines.
Assay [5] addresses T1, HCP5‐132aa‐Flag (microprotein encoded by ORF15 of lncRNA HCP5), stably expressed in GC cells (human). Described as above.
For assay [6] the target is unchanged. The experiment in a line: proximity ligation; GC cells stably expressing HCP5‐132aa‐Flag; anti‐Flag mouse monoclonal and anti‐YBX1/ELAVL1 rabbit monoclonal; Duolink.
The target of assay [7] is HA‐tagged full‐length YBX1 (UniProt P67809). Nature of the assay: co-IP; HEK‐293T co-transfected with YBX1 and ELAVL1 and increasing doses of HCP5‐132aa‐Flag.
Assay [8] concerns the target T2, HCP5‐132aa N‐terminal region (1‐66aa), Flag‐tagged truncation mutant (human) (UniProt Q6MZN7).
T2 sequence: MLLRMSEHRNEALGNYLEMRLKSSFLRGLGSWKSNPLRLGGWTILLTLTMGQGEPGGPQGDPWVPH
Nature of the assay: co-IP; HEK‐293T co-transfected with HA‐tagged YBX1‐CSD and Flag‐tagged HCP5‐132aa truncation mutants; IP with anti‐Flag antibody.

In assay [9] the target is T3, HCP5‐132aa C‐terminal region (67‐132aa), Flag‐tagged truncation mutant (human) (UniProt Q6MZN7).
T3 sequence: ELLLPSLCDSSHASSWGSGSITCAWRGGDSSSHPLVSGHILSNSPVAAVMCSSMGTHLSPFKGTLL
Described as above.

The target in assay [10] is YBX1‐GST (UniProt P67809). The experiment in a line: pull-down; GST pull-down: purified GST‐tagged protein incubated with His‐tagged protein and GST resin, 4 °C, 3 h; washes with NETN buffer (20 mM Tris‐HCl pH 8.0, 200 mM NaCl, 0.5 mM EDTA, 0.5% NP‐40); western blotting; both purified.
The target of assay [11] is HA‐tagged full‐length YBX1 (UniProt P67809). Nature of the assay: co-IP; HEK‐293T co-transfected with Flag‐tagged HCP5‐132aa and HA‐tagged full‐length YBX1 or YBX1 fragments; IP with anti‐HA antibody.

Turning to “ELAVL1, endogenous in GC cells (from UniProt Q15717 1-326)”, the binding entry in assay [1], in assay [2], in assay [3], in [4], in assay [5] and in assay [6] was “binds” throughout.
As to “Y‐box binding protein 1 (YBX1), endogenous in GC cells (from UniProt P67809 1-324)”, the binding entry in assay [2], in assay [5] and in [6] was “binds” throughout.
For “ELAVL1, transfected in HEK‐293T cells (from UniProt Q15717 1-326)”, the binding result in assay [7] is listed as “binds”.
For “HA‐tagged YBX1‐CSD (from UniProt P67809 61-125) (domain or fragment)”, the figures for the binding entry in assay [8] and in assay [9] were “no binding” and “binds”, respectively.

B1: HCP5‐132aa‐His (protein, UniProt Q6MZN7 1-132)
chain: MLLRMSEHRNEALGNYLEMRLKSSFLRGLGSWKSNPLRLGGWTILLTLTMGQGEPGGPQGDPWVPHELLLPSLCDSSHASSWGSGSITCAWRGGDSSSHPLVSGHILSNSPVAAVMCSSMGTHLSPFKGTLL
In the case of B1, in assay [10], the binding result is “binds”.

B2: HCP5‐132aa‐Flag, transfected in HEK‐293T cells (protein, UniProt Q6MZN7 1-132)
chain: MLLRMSEHRNEALGNYLEMRLKSSFLRGLGSWKSNPLRLGGWTILLTLTMGQGEPGGPQGDPWVPHELLLPSLCDSSHASSWGSGSITCAWRGGDSSSHPLVSGHILSNSPVAAVMCSSMGTHLSPFKGTLL
Regarding B2, in [11], the binding result is reported as “binds”.
